In all, about 110,000 compounds were measured (“z-score”: median about -0.1, highest 2% from about 2 on). This is one part of the list. Calls of active or inactive are those of the source.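 How the source made its calls: active means z-score in the third read window above 3 or below -3; inactive means the rest.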
Target: Metabotropic glutamate receptor 8 (Rattus norvegicus) (UniProt P70579)
Test: rat mGluR8 modulators via GIRK flux, primary screen, cell-based, thallium flux, HTS (AID 488969)
Conditions: HEK293 rat mGluR8, GIRK (G protein-gated inwardly rectifying potassium channel) thallium flux, FluoZin2; at 10 µM; stronger effect = higher value; submaximal glutamate (EC20) added with thallium

UniProt P70579, sequence (P70579 whole entry, looked up): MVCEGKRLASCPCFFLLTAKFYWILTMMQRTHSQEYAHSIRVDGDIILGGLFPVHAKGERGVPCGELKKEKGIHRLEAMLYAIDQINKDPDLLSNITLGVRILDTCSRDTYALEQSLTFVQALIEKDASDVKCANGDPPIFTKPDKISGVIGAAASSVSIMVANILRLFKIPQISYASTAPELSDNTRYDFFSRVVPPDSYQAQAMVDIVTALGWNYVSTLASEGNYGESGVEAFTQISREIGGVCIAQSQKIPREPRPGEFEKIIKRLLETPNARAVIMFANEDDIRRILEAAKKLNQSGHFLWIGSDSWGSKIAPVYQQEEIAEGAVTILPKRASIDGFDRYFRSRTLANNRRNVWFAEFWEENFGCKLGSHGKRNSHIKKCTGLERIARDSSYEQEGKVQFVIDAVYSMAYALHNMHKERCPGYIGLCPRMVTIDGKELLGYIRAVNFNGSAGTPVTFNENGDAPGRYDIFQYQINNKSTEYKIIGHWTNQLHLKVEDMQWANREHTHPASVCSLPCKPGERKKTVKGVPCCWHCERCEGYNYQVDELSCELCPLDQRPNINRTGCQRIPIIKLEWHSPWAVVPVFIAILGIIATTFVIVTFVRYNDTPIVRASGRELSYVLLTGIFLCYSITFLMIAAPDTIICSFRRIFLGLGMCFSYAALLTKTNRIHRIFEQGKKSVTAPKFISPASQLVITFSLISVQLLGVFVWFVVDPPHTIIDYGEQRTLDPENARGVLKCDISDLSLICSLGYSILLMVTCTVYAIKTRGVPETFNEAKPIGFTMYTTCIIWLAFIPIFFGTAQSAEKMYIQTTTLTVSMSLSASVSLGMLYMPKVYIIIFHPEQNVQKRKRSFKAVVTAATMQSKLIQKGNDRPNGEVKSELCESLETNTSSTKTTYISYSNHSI

Structure (SMILES)	z-score
COc1ccc(Oc2nc3ccccc3n3cccc23)cc1	-0.22
COc1ccc(Nc2nc(-c3c[nH]c4ccccc34)cs2)cc1	-0.0825
COC(=O)N/N=C(\C)c1ccc2ccccc2c1OC(F)F	0.0536
CC(NC(=O)NC(N)=O)(C(F)(F)F)C(F)(F)F	0.67
COc1ccc(-n2nc3ccc(NS(C)(=O)=O)cc3n2)cc1Cl	1.14
CC(C)(C)C1CCc2c(C(=O)NNC(=O)/C=C/C(=O)O)csc2C1 (configuration not stated)	-0.42
C/C(N)=C(/C#N)C(=O)COC(=O)COc1ccc(Cl)cc1	-0.702
O=C(CN1CCN(c2ccc(O)cc2)CC1)NC1CCCc2ccccc21 (configuration not stated)	-0.00537
O=C(Nc1cccc(C(F)(F)F)c1)C12CC3CC(CC(C3)C1)C2	0.142
COCC(C)NC(=O)C1CC(c2cccc(Br)c2)=NO1 (configuration not stated)	-0.185
CCOCCCNC(=O)CN1CCN(Cc2ccccc2C)C1=O	-0.449
CCOC(=O)CCNC(=O)CNC(=O)OCc1ccccc1	-0.374
CCOC(=O)Cn1c(-c2cccnc2Cl)nc2ccccc21	-0.0219
CC1CC(C)CN(C(=O)c2cc3c(s2)CCC3)C1 (configuration not stated)	-0.126
Cc1ccc(C(=O)OCC(=O)Nc2sc3c(c2C#N)CCC3)cc1	-0.0585
COC(=O)c1cc(Br)c(=O)n(-c2ccc(F)cc2)c1	-0.0505
CCc1nnc(NC(=O)OCc2ccccc2)s1	-0.0773
Cc1cc(/C=N/n2cnnc2)c(C)n1-c1cc(Cl)ccc1Cl	-1.65
Nn1c(SCC(=O)Nc2ccc(F)cc2)nnc1-c1ccccn1	0.617
O=C(C1CCC(CNS(=O)(=O)c2cccc3nsnc23)CC1)N1CC=C(c2ccccc2)CC1 (configuration not stated)	-0.904
CC(C)(NC(=O)N1CCCC1)c1cccc(C(C)(C)NC(=O)N2CCCC2)c1	0.129
CN1CCN(C2CC(=O)N(Cc3ccc(N4CCCC4=O)cc3)C2=O)CC1 (configuration not stated)	-0.043
O=C(CN1C(=O)c2ccccc2S1(=O)=O)Nc1ccccc1C(=O)NCc1ccco1	0.0218
CC1(C)Cc2ccccc2C(=NCCCCCC(=O)O)N1	0.675

Structure (SMILES)	z-score
COCCOC(=O)C1=C(C)N(Cc2ccccc2)C(=O)NC1c1cccc(OC)c1OC (configuration not stated)	0.0531
O=C(Nc1nnc(-c2ccc(Cl)cc2)o1)c1ccc(N2C(=O)CCC2=O)cc1	active: 4.39
CC(=O)N1CCc2cc(NC(=O)c3ccc(C)cc3)ccc21	-0.153
COc1cc(CC(=O)OCC(=O)Nc2cc([N+](=O)[O-])ccc2Cl)cc(OC)c1OC	-0.0706
CCOc1ccc(C(=O)OCCN(C)C)cc1	-0.849
Cc1c(NC(=O)C2CCCCN2S(=O)(=O)c2ccc(Cl)cc2)c(=O)n(-c2ccccc2)n1C (configuration not stated)	0.591
CCNC(=S)NC1CC2CCC(C1)N2Cc1ccccc1 (configuration not stated)	-0.198
COc1ccccc1N(CC(=O)NCc1cccnc1)S(C)(=O)=O	0.0794
CCCC(=O)Nc1ccc(NC(=O)C2CC2)cn1	active: 13.2
Cc1[nH]nc2c1C(=O)CC(C)(C)C2	0.54
Cc1ccc(CNC(=O)c2ccc(CN3CCOCC3)cc2)cc1	-0.0943
O=C(Nc1ccc2c(c1)OCCO2)C1CCN(S(=O)(=O)c2cccs2)CC1	0.373
CCCCOCCCNC(=O)N[C@@H](CCSC)C(=O)OC	-0.312
Cn1c(NCc2c[nH]c3ccccc23)nc2ccccc21	-0.594
c1ccc(-c2cn3c(n2)CCC3)cc1	-0.186
Cc1cc(NC(=O)CSc2nnc(NC(=O)C3CC(=O)N(c4ccccc4C)C3)s2)no1 (configuration not stated)	-0.369
COc1ccc(Cl)cc1NC(=O)C(C)N1CCN(C/C=C/c2ccccc2)CC1 (configuration not stated)	-0.271
Cc1cc(NC(=O)C2CCCCC2C(=O)O)no1 (configuration not stated)	0.513
CC(=NCc1ccco1)c1c(C)[nH]n(-c2nc3ccccc3s2)c1=O	0.306
N/C(=N\OC(=O)Oc1ccccc1)c1cccc([N+](=O)[O-])c1	-0.11
CCN1CCN(C(=O)Cn2ncc3ccsc3c2=O)CC1	-0.337
O=C(/C=C/c1ccc([N+](=O)[O-])cc1)c1cccnc1	-0.543
Cc1ccc(S(=O)(=O)N2CCC(C(=O)Nc3ccc4c(c3)COC4=O)CC2)cc1	-0.562
COc1ccc(-c2cc(-c3ccccc3)c(C#N)c(SCC(=O)Nc3ncc(C)s3)n2)cc1	-0.161

Structure (SMILES)	z-score
Cc1nc2cccc(C)n2c(=O)c1Cl	0.569
COc1cccc2cc(-c3nnc(SCC(=O)Nc4cc(C(F)(F)F)ccc4Cl)n3N)oc12	-0.754
COC(=O)c1cc(OC)c(OC)cc1NC(=O)Nc1ccccc1OC	-0.56
O=C(CCC(=O)c1cccs1)NCc1ccc(F)cc1	-0.173
O=S(=O)(c1ccccc1)c1cnn2c(C(F)(F)F)cc(-c3ccc(F)cc3)nc12	0.0892
COc1cccc(C2c3c(oc4ccccc4c3=O)C(=O)N2c2ccccn2)c1 (configuration not stated)	-0.584
CCCCCCNc1nc(-c2ccc(OC)cc2)c(CCC(=O)O)s1	-0.372
CCCCNC(=O)NS(=O)(=O)c1cnccc1Sc1ccc(Cl)cc1	0.0156
CCOC(=O)CN1C(=O)c2ccccc2C1=O	-0.0635
O=C1c2ccccc2C2=Nc3ccccc3SC(c3ccccc3F)C12 (configuration not stated)	1.05
CN(C)S(=O)(=O)c1cccc(-c2cn3cc(Cl)ccc3n2)c1	-1
Cc1ccc(/C=C2\C(=O)Nc3ccccc32)o1	-0.235
COc1cc2c(cc1OC)C(c1ccsc1)CC(=O)N2 (configuration not stated)	0.343
Cc1nnsc1NC(=O)OCc1ccc(Cl)cc1Cl	-0.208
O=C(Oc1ccccc1C(=O)Nc1ccccc1)c1ccc(Br)c([N+](=O)[O-])c1	0.646
CN(C)CCCNC1CS(=O)(=O)CC1O (configuration not stated)	-0.292
O=S(=O)(c1cccc(NC(=S)N2CCN(c3ccc(F)cc3)CC2)c1)C(F)F	-0.0651
Cc1ccccc1NC(=O)c1cc(S(=O)(=O)N2CCOCC2)cs1	0.0399
CCn1cc(S(=O)(=O)CC(=O)Nc2cc(C)on2)c2ccccc21	0.0844
Cc1ccc(CNC(=O)CS(=O)Cc2nc(-c3ccccc3C)oc2C)cc1 (configuration not stated)	-0.577
Cc1cc(C(c2nnnn2Cc2ccccc2)N2CCOCC2)c(C)n1-c1ccc2c(c1)OCO2 (configuration not stated)	-0.223
CC(C)(C)Nc1nc(Oc2ccc(=O)n(-c3ccccc3)n2)nc(N2CCOCC2)n1	-2.36
Cc1cccc(COc2ccccc2/C=N/Nc2ccc([N+](=O)[O-])cc2)c1	-0.246
O=C(Nc1ccc(Br)cc1)c1cccnc1N1CCCCC1	-0.47
